Laboratory results as given in the supplement of paper PMC7826260.
The other results are listed elsewhere or left out. Each Rep nickase domain was tested in vitro on the same pool of single strands (1 h at 37 °C, 3 µM enzyme); the outer parts of the 90-letter strands are left off. The score is log2 (uncut reads / reads without enzyme); the lower, the more was cut; hits are not called. The scaling is to total reads, so uncut sequences can rise above 0 when many others are cut.

Each sequence was assayed on T1, Rep nickase domain of tomato golden mosaic virus (assay: uncleaved DNA left, log2 of reads against the no-enzyme library (log2 ratio); higher = less cleavage (more negative = more Rep cleavage of the k-mer); sequences stand for … in CTCGTCCG…ACCGGAGA).
T1 sequence (Rep 1-124, printed without the tag): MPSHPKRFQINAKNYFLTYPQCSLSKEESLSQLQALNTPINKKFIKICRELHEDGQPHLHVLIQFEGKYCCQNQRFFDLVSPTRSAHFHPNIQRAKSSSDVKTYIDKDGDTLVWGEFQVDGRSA
Method: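 A pool of 90-nt single-stranded DNAs with seven random bases just before the constant AC of the nick site (name = the seven bases) was cut by 3 µM recombinant His6-SUMO-tagged Rep nickase domain (300 nM DNA, 50 mM HEPES pH 8.0, 50 mM NaCl, 1 mM MnCl2, 1 h, 37 °C, three replicates). Uncut DNA was amplified and sequenced.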
GAATGGC was tested, and the “uncleaved DNA left (log2)” value was 0.000711.
With TTCGCGT the “uncleaved DNA left (log2)” value was -0.0769.
CGACCAG was tested, and the “uncleaved DNA left (log2)” value was -0.112.
For ATAGTGA, the “uncleaved DNA left (log2)” value was 0.0187.
For ACTAACT, the “uncleaved DNA left (log2)” value was -0.0254.
For ACCCTCT, the “uncleaved DNA left (log2)” value was -0.0987.
For CCCTTGG, the “uncleaved DNA left (log2)” value was 0.132.
TAAGGGG was tested, and the “uncleaved DNA left (log2)” value was 0.061.
In the case of CTCGCTA, the “uncleaved DNA left (log2)” value is reported as 0.246.
TAAAATG was tested, and the “uncleaved DNA left (log2)” value was -0.0144.
For CACTTTG, the “uncleaved DNA left (log2)” value was -0.116.
For TACGGAA, the “uncleaved DNA left (log2)” value was 0.185.
With ACATTGG the “uncleaved DNA left (log2)” value was -0.00257.
In the case of TTGGCGT, the “uncleaved DNA left (log2)” value is reported as -0.217.
For TTTCGTC, the “uncleaved DNA left (log2)” value was -0.0756.
In the case of GCGTGTT, the “uncleaved DNA left (log2)” value is reported as -0.305.
For CGCTGGA, the “uncleaved DNA left (log2)” value was 0.0449.
With CGTTTGT the “uncleaved DNA left (log2)” value was -0.0286.
TCCTCGA was tested, and the “uncleaved DNA left (log2)” value was -0.113.
In the case of CCCACGA, the “uncleaved DNA left (log2)” value is reported as -0.0227.
ATCTGTC was tested, and the “uncleaved DNA left (log2)” value was -0.0154.
With TCGAAGC the “uncleaved DNA left (log2)” value was -0.0425.
GACGTTA was tested, and the “uncleaved DNA left (log2)” value was 0.136.
In the case of CCCAAGT, the “uncleaved DNA left (log2)” value is reported as -0.113.
With TCGACCC the “uncleaved DNA left (log2)” value was -0.0775.
With ATCCACA the “uncleaved DNA left (log2)” value was 0.0753.
In the case of CTTCGTC, the “uncleaved DNA left (log2)” value is reported as -0.211.
In the case of TAGCCTA, the “uncleaved DNA left (log2)” value is reported as -0.0507.
For TCATTTA, the “uncleaved DNA left (log2)” value was -0.104.
In the case of AGCCACA, the “uncleaved DNA left (log2)” value is reported as 0.0676.
TTCGCTT was tested, and the “uncleaved DNA left (log2)” value was -0.139.
In the case of TTGTGTA, the “uncleaved DNA left (log2)” value is reported as 0.0308.
For GCCGTAA, the “uncleaved DNA left (log2)” value was -0.0697.
In the case of GGTCGCA, the “uncleaved DNA left (log2)” value is reported as 0.105.
With TTCGACG the “uncleaved DNA left (log2)” value was -0.075.
AGCCAAC was tested, and the “uncleaved DNA left (log2)” value was -0.0324.
TGTGGTT was tested, and the “uncleaved DNA left (log2)” value was -0.0671.
In the case of GGGTCGC, the “uncleaved DNA left (log2)” value is reported as 0.0134.
CAACAGT was tested, and the “uncleaved DNA left (log2)” value was -0.0595.
With TGTATGC the “uncleaved DNA left (log2)” value was -0.174.
